Among all 310,000 compounds or so, about 2,200 (0.71%) showed an effect of 50% or more. The effect is printed as a negative number. The list shows a part of the results.
These molecules were tested against human ether-à-go-go-related gene (hERG) potassium channel (human, UniProt Q12809) (assay: primary screen, population patch clamp on CHO cells stably expressing hERG).
human ether-à-go-go-related gene (hERG) potassium channel, sequence (Q12809 whole entry, looked up): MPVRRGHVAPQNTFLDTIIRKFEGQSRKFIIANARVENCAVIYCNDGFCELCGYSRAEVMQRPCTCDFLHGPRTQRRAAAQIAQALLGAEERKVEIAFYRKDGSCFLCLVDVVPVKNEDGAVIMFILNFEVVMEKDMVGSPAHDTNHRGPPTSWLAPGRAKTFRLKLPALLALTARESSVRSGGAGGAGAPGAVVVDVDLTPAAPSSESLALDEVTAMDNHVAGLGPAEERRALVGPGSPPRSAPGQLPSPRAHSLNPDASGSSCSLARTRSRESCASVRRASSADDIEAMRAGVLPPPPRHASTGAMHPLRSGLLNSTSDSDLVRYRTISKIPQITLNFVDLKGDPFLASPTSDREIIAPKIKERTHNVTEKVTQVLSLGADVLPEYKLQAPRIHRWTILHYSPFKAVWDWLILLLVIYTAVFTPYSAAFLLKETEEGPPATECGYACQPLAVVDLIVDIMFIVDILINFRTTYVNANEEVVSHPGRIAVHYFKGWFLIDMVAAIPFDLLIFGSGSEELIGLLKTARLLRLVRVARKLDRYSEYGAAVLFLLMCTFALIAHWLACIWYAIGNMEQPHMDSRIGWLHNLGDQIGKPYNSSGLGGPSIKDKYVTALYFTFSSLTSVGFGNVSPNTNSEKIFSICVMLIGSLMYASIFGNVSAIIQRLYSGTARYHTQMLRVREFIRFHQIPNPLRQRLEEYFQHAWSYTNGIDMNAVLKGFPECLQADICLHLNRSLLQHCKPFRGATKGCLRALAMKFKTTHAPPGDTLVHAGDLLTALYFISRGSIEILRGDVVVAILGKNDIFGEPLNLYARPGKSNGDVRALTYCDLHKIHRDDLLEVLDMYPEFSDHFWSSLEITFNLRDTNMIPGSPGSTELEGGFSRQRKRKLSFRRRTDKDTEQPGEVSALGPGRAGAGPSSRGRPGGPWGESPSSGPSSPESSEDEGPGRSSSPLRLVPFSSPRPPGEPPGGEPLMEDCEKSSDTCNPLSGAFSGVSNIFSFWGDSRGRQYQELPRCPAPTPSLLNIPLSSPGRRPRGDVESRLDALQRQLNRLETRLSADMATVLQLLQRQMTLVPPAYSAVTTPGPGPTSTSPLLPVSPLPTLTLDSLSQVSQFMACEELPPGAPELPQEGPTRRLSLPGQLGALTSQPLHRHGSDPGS

| SMILES | hERG current change (%, negative = inhibition) at 1uM [%] |
| --- | --- |
| COc1ccc2c(C)cc(Sc3nnnn3-c3ccccc3)nc2c1 | -0.967 |
| COc1ccc(CNC(=S)Nc2cc(OC)ccc2OC)cc1 | -2.94 |
| O=C(COC(=O)CC(c1ccccc1)c1ccccc1)NCc1ccccc1 | 17.8 |
| CCC(c1nnnn1Cc1ccco1)N(Cc1cc2cc(C)cc(C)c2[nH]c1=O)CC1CCCO1 (stereo not drawn) | -1.71 |
| Cc1cccc(N2CCN(C3=NC(=O)C(Cc4ccccc4)S3)CC2)c1 (stereo not drawn) | 6.84 |
| Cc1ccc(N(C(=O)c2csnn2)C(C(=O)NC2CCCCC2)c2ccccn2)cc1 (stereo not drawn) | 22.7 |
| CCN(CC(=O)Nc1ccccc1OC)C(=O)c1ccc2[nH]c3c(c2c1)CC(C)CC3 (stereo not drawn) | 8.12 |
| CC(C)C(NC(=O)c1ccc(Cl)cc1)C(=O)O (stereo not drawn) | 10.2 |
| COc1ccc(N/C=C2\CCOC2=O)cc1 | -4.01 |
| O=C(O)c1ccccc1-c1ccccc1C(=O)Nc1ccc(OC(F)(F)F)cc1 | 12.3 |
| CCCN1CCC(=O)N([C@H](CSc2ccccc2)c2ccccc2)CC1 | -82.2 |
| Cc1ccc(C2=NCCn3nc4cc(C(F)(F)F)ccc4c32)cc1 | 1.36 |
| Cc1ccc(S(=O)(=O)N2CCC(C(=O)Nc3ncccc3O)CC2)cc1 | -13.8 |
| O=C(O)C1(P(=O)(c2ccccc2)c2ccccc2)CCCC1 | 1.88 |
| CCCCN(C)CCNC(=O)c1ccc(Cn2c(=S)[nH]c3ccc(Br)cc3c2=O)cc1 | 5.55 |
| O=S(=O)(Nc1nc2ccccc2nc1NCCN1CCOCC1)c1cccc(Cl)c1 | 8.11 |
| CCOC(=O)CNC(=O)c1ccc(C)cc1 | 5.01 |
| COc1ccc(N(C(=O)c2snc(C(N)=O)c2N)C(C(=O)NC2CCCC2)c2ccco2)cc1 (stereo not drawn) | 3.98 |
| CC(C)(O)C#Cc1ccc(C(=O)N2CCN(c3ccccc3)CC2)cc1 | 12.1 |
| S=C1NCN(Cc2ccco2)CN1c1cccc2ccccc12 | 12.5 |
| COc1cc(C(C#N)N2CCOCC2)ccc1O (stereo not drawn) | 12.2 |
| COc1ccc(S(=O)(=O)N2CCOCC2)cc1C(=O)Nc1ccc2c(c1)OCO2 | 13.2 |
| CCOc1ccc(NC(=O)CSc2nc(N3CCOCC3)nc(N3CCOCC3)n2)cc1 | 10.3 |
| O=C1c2ccccc2S(=O)(=O)N1CC(O)Cn1c2ccccc2c2ccccc21 (stereo not drawn) | 7.45 |

Reference: PMC4336329 (PLoS ONE, 2015)
